Laboratory results as given in PubChem BioAssay AID485344 (National Center for Advancing Translational Sciences (NCATS), 2010).
“And” between values parts separate entries of the source, which are not always exact repeats. Equal entries are not always repeated. The campaign covered roughly 340,000 compounds. About 6,900 (2%) were called active. Cut-off read from the data, not from the text of the source: active = inhibition above about 30%; inactive = below that, where a call was filed. Only a part is listed here, and it is no random draw. The source gives no active or inactive call for entries shown without one.

Molecular target: D(2) dopamine receptor (Homo sapiens) (UniProt P14416)
Chain of UniProt P14416 (P14416 whole entry, looked up): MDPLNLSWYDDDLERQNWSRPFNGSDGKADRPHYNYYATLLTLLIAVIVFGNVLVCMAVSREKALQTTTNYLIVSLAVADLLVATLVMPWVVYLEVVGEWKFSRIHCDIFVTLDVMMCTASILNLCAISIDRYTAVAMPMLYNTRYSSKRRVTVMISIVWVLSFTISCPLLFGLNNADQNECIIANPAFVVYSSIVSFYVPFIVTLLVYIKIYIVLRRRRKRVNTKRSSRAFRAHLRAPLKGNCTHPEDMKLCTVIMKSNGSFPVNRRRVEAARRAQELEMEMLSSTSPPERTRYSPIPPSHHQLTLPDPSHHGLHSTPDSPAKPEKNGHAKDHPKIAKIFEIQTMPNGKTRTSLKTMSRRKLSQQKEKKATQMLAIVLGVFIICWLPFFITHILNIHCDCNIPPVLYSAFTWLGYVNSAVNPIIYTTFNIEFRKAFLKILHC
Assay: HTS Assay for Allosteric Antagonists of the Human D2 Dopamine Receptor: Primary Screen for Antagonists; note: 0% is about no effect
Conditions: HEK293 TREx D2 cells, calcium flux, dopamine EC80; at 10 µM; stronger effect = higher value
Summary of the method: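 Calcium flux kinetic readout in an inducible HEK293 TREx D2 line plated overnight at 30 C. After 180 s compound exposure, an EC80 dopamine challenge follows with another 180 s kinetic read to detect antagonism.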

| SMILES | inhibition |
| --- | --- |
| CCCCOC(=O)c1ccc(NC(=O)C2(c3cccs3)CCOCC2)cc1 | 6.44% |
| COc1ccccc1-c1cc(C(=O)Nc2c(C)nn(Cc3ccc(Cl)cc3)c2C)no1 | 4.69% |
| CCOC(=O)c1c(NC(=O)CSc2cn(CCNC(=O)c3ccc(OC)cc3)c3ccccc23)sc2c1CCC2 | -10.8% |
| COc1ccc(-c2nnc(SCC(=O)Nc3cccc(C)c3)s2)cc1 | -14.1% |
| CC(=O)N1CCc2cc(CNS(=O)(=O)c3cccs3)ccc21 | 21% |
| CCOc1ccccc1N(C)C(=O)c1sc2nc3n(c(=O)c2c1C)CCCC3 | -23% |
| COc1ccc(-c2cn3nc(N4CCCC(C(=O)Nc5ccccc5F)C4)sc3n2)cc1 (stereo unspecified) | -12.3% |
| Cc1nn(CC(=O)Nc2ccc(C(C)C)cc2)c(=O)c2c(C)n(-c3ccc(Cl)cc3)nc12 | -2.29% |
| COc1ccc(NC(=O)CSc2nccn2C2CCCC2)cc1OC | -24.4% |
| CCCCN(CCCNC(=O)c1cc(Nc2ccc(OC)cc2OC)nc2ccccc12)Cc1ccccc1 | 8.87% |
| Cc1ccccc1OCC(=O)Nc1ccc(OCc2cc(=O)n3ccccc3n2)cc1 | -2.72% |
| Cc1ccc(CNC(=O)c2ccc3oc(=O)n(Cc4ccccc4)c3c2)cc1 | 8.46% |
| O=C(CSc1nc2c(c(=O)[nH]1)CN(Cc1ccc3c(c1)OCO3)CC2)Nc1cc(F)ccc1F | 7.09% |
| CCCn1c2ccccc2c2cnn(CC(=O)Nc3ccccc3OC)c(=O)c21 | 16.1% |
| COc1cc(NC(=O)Nc2nnc(N3CCCCC3)s2)cc(OC)c1 | -21.7% |
| Cc1cccc(NC(c2cccc(Cl)c2)c2ccc3cccnc3c2O)n1 (stereo unspecified) | -21.6% |
| Cc1ccc2c(CC(=O)Nc3ccc(S(=O)(=O)N4CCC(C)CC4)cc3)coc2c1 | 6.42% |
| Cc1nn(-c2ccccc2)c2c1N(CCCC(=O)NCc1ccc(OC(C)C)cc1)C(=O)CS2 | 0.727% |
| CC1CCc2nc3ccc(S(=O)(=O)N4CCC(C(=O)NCc5ccccc5Cl)CC4)cc3c(C(=O)O)c2C1 (stereo unspecified) | 1.19% |
| O=c1c2[nH]c3ccccc3c2nc(SCc2ccccc2F)n1-c1ccc(F)cc1 | 26.2% |
| CCCCSCCCNC(=O)c1cn(CC)c2ccc(S(=O)(=O)N3CCOCC3)cc2c1=O | -9.29% |

| SMILES | inhibition |
| --- | --- |
| COc1ccc(S(=O)(=O)N2CCC(C(=O)Nc3ccc(Oc4ccccc4)cc3)CC2)cc1OC | 13.4% |
| O=S(=O)(c1ccc(OCC(O)CN2CCN(c3ccccc3O)CC2)cc1)N1CCOCC1 (stereo unspecified) | active: 69.4% |
| COc1ccc(NC(=O)c2ccc(-c3nc(COc4ccccc4)c(C)o3)cc2)cc1 | 6.96% |
| Cc1ccc(-c2nn(-c3ccccc3)cc2/C=N/NC(=O)c2ccc3c(c2)OCO3)cc1 | active: 31.8% |
| COC(=O)c1ccc(NC(=O)c2cc3cc(C)ccc3n2C)cc1 | 9.18% |
| COc1ccc(OC)c(NC(=O)C(CCSC)NS(=O)(=O)c2cccs2)c1 (stereo unspecified) | 6.45% and active: 32.4% |
| COc1cc(OC)cc(C(=O)NC2CC3CCC(C2)N3Cc2ccco2)c1 (stereo unspecified) | active: 48.2% |
| CCCn1c(Nc2cccc(OC)c2)nc2ccccc21 | active: 38.8% |
| COc1ccc(-c2nc(SCC(=O)N3CCC(C)CC3)n[nH]2)cc1 | 10.3% |
| Nc1c(C(=O)Nc2ccc(Cl)cc2F)sc2nc(-c3cccs3)ccc12 | 3.23% |
| COc1ccc(Cl)cc1N(C(=O)c1ccco1)C(C(=O)NC1CCCC1)c1ccncc1 (stereo unspecified) | active: 39.4% |
| Cc1ccc(Cl)cc1NC(=O)/C(C#N)=C\c1cn(Cc2ccc(F)cc2)c2ccccc12 | 1.57% |
| COc1ccc(C(=O)Nc2ccc(C(=O)OCc3cc(=O)n4nc(C(C)C)sc4n3)cc2)cc1 | 0.675% |
| OC1(CNCc2ccccc2)C2CC3CC(C2)CC1C3 (stereo unspecified) | active: 56.5% |
| Fc1ccc(CNc2cc(-c3ccccc3)nc3nncn23)cc1 | -4.12% |
| Cc1ccccc1C(=O)Nc1ccc2nc(SCCOc3ccccc3)sc2c1 | -7.73% |
| CCOC(=O)c1c(S(=O)(=O)NCC(=O)NCc2ccc(C)cc2)c(C)n(C)c1C | -17.4% |
| CCc1nnc(SCc2nc(-c3ccccc3)oc2C)c2cc3sccc3n12 | 0.992% |
| CCc1ccc(CNC(=O)Cc2c(C(=O)O)c(C)cn2C)cc1 | -2.67% |
| Cc1ccc(C)c(NC(=O)Cn2c(=O)n(Cc3cccs3)c(=O)c3cccnc32)c1 | -4% |
| CC(C)(C)OC(=O)N1CCC(c2c(C(=O)N3CCN(c4ncccn4)CC3)cnn2-c2ccc(F)cc2F)CC1 | 6.08% |

| SMILES | inhibition |
| --- | --- |
| COc1ccc(-c2cn3nc(N4CCC(C(=O)Nc5cc(Cl)ccc5OC)CC4)sc3n2)cc1 | 3.14% |
| CN(CC(=O)Nc1cccc(C#N)c1)Cc1ccc(Cl)cc1 | active: 68.3% |
| Cc1ccc(-c2cc(C(=O)N3CCN(S(=O)(=O)c4ccc(Br)s4)CC3)[nH]n2)c(C)c1 | 23.8% |
| CCOc1ccc(CCNC(=O)C2Cc3ccccc3N2C(=O)CC)cc1OCC (stereo unspecified) | -4.17% |
| Cc1ccc(N(CC(=O)Nc2ccc(Br)c(C)c2)S(=O)(=O)c2cccs2)cc1 | 3.12% |
| OC(CNCC#Cc1ccccc1)c1ccccc1 (stereo unspecified) | active: 39.1% |
| CN(C)c1ccc(CNC(=O)C(Cc2ccccc2)NS(=O)(=O)c2ccc3c(c2)oc(=O)n3C)cc1 (stereo unspecified) | -18.8% |
| O=C(NCc1ccccc1Cl)NC(=O)c1ccccc1 | active: 33.4% |
| COc1cccc(CCNc2ncnc3c2nnn3C)c1 | 10.4% |
| O=C(NCc1ccc(F)cc1)c1cc2c(s1)-c1ccccc1SC2 | 14.8% |
| O=C(CCCn1c(=O)c2ccccc2n(CC(=O)Nc2ccc(F)cc2F)c1=O)NCc1ccccc1Cl | 14.4% |
| COc1cc2c(=O)n(CCC(=O)NCC3CCCO3)c(=O)n(CC(=O)Nc3c(C)cccc3C)c2cc1OC (stereo unspecified) | -4.52% |
| CCCCOC(=O)c1ccc(NC(=O)/C(C#N)=C/c2ccc(-c3ccccc3)o2)cc1 | -6.98% |
| CCCCCCn1c(=O)[nH]c2nc3cc(N)ccc3nc2c1=O | active: 32% |
| Cc1ccc(S(=O)Cc2nc(-c3ccc(C(=O)NC(C)c4ccccc4)cc3)oc2C)cc1 (stereo unspecified) | 1.11% |
| CC(NC(=O)CSc1n[nH]c(-c2ccccc2)n1)c1nc2ccccc2n1C (stereo unspecified) | -15.6% |
| COc1cc(OC)c(NC(=O)c2cc(S(=O)(=O)N3CCCC3)cn2C)cc1Cl | -0.53% |
| CCC1CCCCN1C(=O)Cn1c(=O)n(CC2CCC(C(=O)NC)CC2)c(=O)c2sccc21 (stereo unspecified) | 15.7% |
| CCCCc1ccc(Nc2ncnc3c2cnn3-c2ccc(C)cc2)cc1 | 13.2% |
